Several values for one entry are separate records, joined by “and”; a condition that tells them apart may be missing. Identical values can stand only once. Out of some 48,000 compounds screened, about 1,200 (2.5%) were called active. Not shown: some 2% with an inconclusive outcome.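 Rule for the calls: active = activation of at least 60% and not above a set upper limit (about 1 call in 100 departs from these limits); inconclusive = activation of 40% to 60%, or above that upper limit; inactive = activation under 40%.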 Some of the results follow.
Biological target: Probable G-protein coupled receptor 32 (Homo sapiens) (UniProt O75388)
Sequence of UniProt O75388 (O75388 whole entry, looked up): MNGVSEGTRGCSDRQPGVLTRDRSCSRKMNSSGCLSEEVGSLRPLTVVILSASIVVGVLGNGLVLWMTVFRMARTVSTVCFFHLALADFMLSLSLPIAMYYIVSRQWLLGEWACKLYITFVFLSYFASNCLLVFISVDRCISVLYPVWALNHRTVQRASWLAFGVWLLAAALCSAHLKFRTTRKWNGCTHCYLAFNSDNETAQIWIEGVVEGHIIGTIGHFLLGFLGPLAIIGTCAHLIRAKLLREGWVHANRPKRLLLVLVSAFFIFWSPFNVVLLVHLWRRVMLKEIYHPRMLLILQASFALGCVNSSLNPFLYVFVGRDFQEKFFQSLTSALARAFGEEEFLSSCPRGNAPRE
Experiment: qHTS for Agonists of Human Resolvin D1 Receptor DRV1; note: 0% is about no effect
Details: CHO-K1 GPR32 beta-arrestin PathHunter luminescence, 90 min; at 76.9 µM; hits give high values; zero percent set by DMSO-only wells
Procedure, shortened: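 Luminescent readout of beta-Gal complementation quantifies ligand-induced beta-arrestin association with GPR32 in CHO-K1 cells; 90 min compound incubation at 37 °C, detection 1 h at room temperature.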

activation, inactive:
CCc1ccc(Nc2nc3ccccc3nc2NS(=O)(=O)c2ccccc2)cc1 33.1%
Cc1cccc(-n2c(=O)c3ccccc3n(Cc3ccc(F)cc3)c2=O)c1 -12.8%
Cc1[nH]c(=O)c(C#N)cc1-c1ccc2nccn2c1 -2.48% and -3.39%
COc1ccc(N(C)C(=O)Cn2cc(S(=O)(=O)N3CCN(c4ccccc4F)CC3)c3ccccc3c2=O)c(OC)c1 -17.7%
COc1ccc(NC(=O)C2=C(C)Nc3nc(SCc4ccc(Cl)cc4)nn3C2c2cccc(OC)c2OC)cc1 (stereo not drawn) 8.48%
CCCCOC(=O)c1ccc(NC(=O)c2sc3nc(C)cc(C)c3c2N)cc1 -5.69%
O=C(Cn1c(=O)nc(-c2ccccc2)c2ccccc21)Nc1ccc(Cl)cc1F -8.54%
Cc1cc2c(cc1S(=O)(=O)Nc1cc(C(F)(F)F)cc(C(F)(F)F)c1)OCC(=O)N2 45.9%
CCCCCCOc1ccc(C2C(=O)N(C3CCCCC3)CC(=O)N2C2CCCCC2)cc1 (stereo not drawn) -1.53%
CCN(CC)S(=O)(=O)c1ccc(C(=O)NCCSc2c(-c3ccccc3)[nH]c3ccccc23)cc1 -17.2%
CCC(=O)N1CCc2cc(S(=O)(=O)NCCC(=O)Nc3ccc(N(CC)CC)cc3C)ccc21 19.2%
Cc1ccc(-c2nn3c(C)nnc3c3ccccc23)cc1S(=O)(=O)NCC(C)O (stereo not drawn) -12%
O=C(c1ccc2c(c1)N(Cc1ccc(F)cc1)C(=O)c1ccccc1S2(=O)=O)N1CCCCC1 -11.4%
COc1cc(NC(=O)CSc2c3c(nc4ccccc24)CCC3)cc(OC)c1OC -3.58%
NC(=O)c1cc(S(=O)(=O)N2CCN(c3cccc(C(F)(F)F)c3)CC2)cs1 -5.35%
O=C(CSc1nc2ccccc2nc1Cc1ccc(Cl)cc1)N1CCN(c2ccccc2)CC1 -6.06%
O=C(CSc1nc(-c2cccc(F)c2)[nH]c1-c1ccccc1)Nc1ccc2c(c1)OCO2 11.6%
COc1cc(NC(=O)c2cc3cc4ccc(C)cc4nc3o2)cc(OC)c1OC 12.1%
CCc1ccccc1N(C)C(=O)C1CCCN(c2ncnc3c2nc2n3CCCCC2)C1 (stereo not drawn) -5.63%
Cc1ccc(-n2ncc(C(=O)NCc3ccco3)c2C2CCN(C(=O)OC(C)(C)C)CC2)cc1C -27.5%
Cc1c(C(=O)Nc2cc(F)ccc2F)sc2nc(-c3ccc(F)cc3)cn12 -11.8%
CCc1c(C)c2cc3c(c(C)c2oc1=O)OCN(CCc1ccccc1F)C3 36.9%
Cc1ccc2c(=O)cc(C(=O)Nc3c(C)n(C)n(-c4ccccc4)c3=O)oc2c1 4.42%
CCOC(=O)C1(C)C=C(Nc2cccc(C(=O)O)c2)C(=O)N1c1ccccc1 (stereo not drawn) -14.9%
Cc1ccc(CNC(=O)C(=O)NCC(c2ccc3c(c2)OCO3)N2CCOCC2)cc1 (stereo not drawn) -17.7%
COc1cc(NC(=O)CSc2nc3nc(C)c(Cc4ccccc4Cl)c(C)n3n2)cc(OC)c1 -3.93%
COc1cc(Cl)c(C)cc1NC(=O)c1cnc(N2CCCCC2)c2ccccc12 -15.2%
CCCOc1ccc(CNC(=O)C(NS(=O)(=O)c2cccs2)C(C)C)cc1 (stereo not drawn) -0.972%
COC(=O)C(CCSC)Nc1ncnc2onc(-c3ccc(F)cc3)c12 (stereo not drawn) -9.2%
CC(C)Cn1c(-c2cccc(Br)c2)nc2ccccc21 11.1%
COc1cc2nc(SCc3ccc(C)cc3)n3nc(CCn4nc(C)cc4C)nc3c2cc1OC -1.31%
CCOc1ccccc1NC(=O)C(=O)Nc1ccc2nc3n(c(=O)c2c1)CCCCC3 -15.5%
Cc1cc(C)cc(NC(=O)C(Cc2ccccc2)NS(=O)(=O)c2ccc3c(c2)CCC(=O)N3)c1 (stereo not drawn) 8.67%
O=C(c1ccccc1)N1c2nc(-c3ccco3)nn2C2(CCCCC2)[C@@H]2CCCC[C@@H]21 -17.6%
Cc1cc(C)cc(NC(=O)Cc2noc3ccccc23)c1 -7.35%
Cc1cc(C)c(NC(=O)C2CCCN(S(=O)(=O)c3c(C)noc3C)C2)c(C)c1 (stereo not drawn) 16.2%
Cc1ccccc1OCc1ccc(-c2nc(C#N)c(N3CCN(c4cccc(Cl)c4)CC3)o2)o1 -10.3%
CCN1CCN(c2oc(-c3ccc(COc4ccccc4C)o3)nc2C#N)CC1 -17.3%
O=C(O)c1ccccc1C(=O)Nc1ccc(Br)c2cccnc12 -12.4%
COc1ccc(Cn2ccc3nc(C)c(C(=O)Nc4cccc(SC)c4)cc3c2=O)cc1 -23%
Oc1c(C(Nc2ccccn2)c2ccccc2F)ccc2cccnc12 (stereo not drawn) 1.39%
COc1cccc(CNC(=O)Cn2ncn3nc(-c4cccs4)cc3c2=O)c1 0.091%
CCCNC(=O)c1ccc2c(c1)nc1n2CCCCC1 -5.47%
Cc1noc(C)c1S(=O)(=O)N(CC(=O)Nc1ccc(F)cc1F)c1ccc(C(C)C)cc1 -5.62%
COc1ccc(NC(=O)C(=O)NCCc2csc3nc(-c4ccccc4F)nn23)cc1OC -0.389%
CC(=O)c1ccc(NS(=O)(=O)c2ccc3c(c2)NC(=O)CCS3)cc1 -9.93%
CCn1cc2nc(SCc3ccccc3Cl)n(Cc3ccc(OC)cc3)c(=O)c2n1 -13%
COc1cccc(CNC(=O)c2ccc(-c3nc(CSc4ccccc4)c(C)o3)cc2)c1 3.86%
CCCN(CCC)CCCNC(=O)c1cc2c(=O)n(C)c3ccccc3c2s1 16.5%
CC(=O)Nc1ccccc1-c1nc2ccccc2n(C(C)C(=O)Nc2ccccc2C(F)(F)F)c1=O (stereo not drawn) -1.52%

activation, active:
OCc1cnc(SCc2ccccc2F)n1Cc1ccc(F)cc1 93.9%
Cc1ccc(NC(=O)C2CCN(S(=O)(=O)c3cccc4nsnc34)CC2)cc1F 93.3%
COc1ccc(C(Nc2ccccn2)c2ccc3ccc(C)nc3c2O)cc1C (stereo not drawn) 89.8%

From PubChem BioAssay AID1346428 (National Center for Advancing Translational Sciences (NCATS), 2018)
